We go through 32 sequences from paper PMC12820563.

Some of the results follow. The list includes weakly bound sequences.

This experiment addresses T1, MBP-FoxP3dN (UniProt Q99JB6).
T1 sequence: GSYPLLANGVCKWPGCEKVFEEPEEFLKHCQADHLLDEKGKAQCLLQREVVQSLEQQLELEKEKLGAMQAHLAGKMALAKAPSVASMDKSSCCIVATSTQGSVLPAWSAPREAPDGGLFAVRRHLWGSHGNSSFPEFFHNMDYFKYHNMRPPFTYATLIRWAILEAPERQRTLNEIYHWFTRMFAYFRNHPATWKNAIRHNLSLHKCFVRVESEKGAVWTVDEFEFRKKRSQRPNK
The experiment in a line: PD-seq (MBP pull-down with sequencing). The conditions noted are these: 20 mM Tris-HCl pH 7.5, 100 mM NaCl, 1.5 mM MgCl2, 0.4 uM protein, 0.1 uM dsDNA library, 30 min, room temperature, amylose pull-down; high values mean tight binding; double strand, one strand shown.
As for “GATGATTGTTCTCCCAGCTGATGAATTTAGAACTTCGAGTAAACAAATTTTCCTAATCTTTCTGTTCAAGCGCCATCTAC”, the binding signal (RPM ratio (pull-down/input)) was found to be 0.331.
Take “GATGATTGTTCTCCCAGCTGATGAATTGTAATACTCGAGTAAACAAATTTTCCTAATCTTTCTGTTCAAGCGCCATCTAC”: the binding signal (RPM ratio (pull-down/input)) was 0.756.
With “GATGATTGTTCTCCCAGCTGATGAATTTCGCCGATCGAGTAAACAAATTTTCCTAATCTTTCTGTTCAAGCGCCATCTAC”, the binding signal (RPM ratio (pull-down/input)) came out at 0.618.
Take “GATGATTGTTCTCCCAGCTGATGAATTCTTCTTATCGAGTAAACAAATTTTCCTAATCTTTCTGTTCAAGCGCCATCTAC”: the binding signal (RPM ratio (pull-down/input)) turned out to be 0.288.
Turning to “GATGATTGTTCTCCCAGCTGATGAATTAGCCTGCTCGAGTAAACAAATTTTCCTAATCTTTCTGTTCAAGCGCCATCTAC”, the binding signal (RPM ratio (pull-down/input)) was found to be 0.578.
The result for “GATGATTGTTCTCCCAGCTGATGAATTAACCCGCTCGAGTAAACAAATTTTCCTAATCTTTCTGTTCAAGCGCCATCTAC” reads 0.208; that for “GATGATTGTTCTCCCAGCTGATGAATTCGCCACGTCGAGTAAACAAATTTTCCTAATCTTTCTGTTCAAGCGCCATCTAC”, 0.944; that for “GATGATTGTTCTCCCAGCTGATGAATTACCCAGGTCGAGTAAACAAATTTTCCTAATCTTTCTGTTCAAGCGCCATCTAC”, 0.153.
Turning to “GATGATTGTTCTCCCAGCTGATGAATTGGTGTAATCGAGTAAACAAATTTTCCTAATCTTTCTGTTCAAGCGCCATCTAC”, the binding signal (RPM ratio (pull-down/input)) was 1.35.
For “GATGATTGTTCTCCCAGCTGATGAATTAGACCAGTCGAGTAAACAAATTTTCCTAATCTTTCTGTTCAAGCGCCATCTAC”, the binding signal (RPM ratio (pull-down/input)) came out at 0.233.
Turning to “GATGATTGTTCTCCCAGCTGATGAATTTCAGCCGTCGAGTAAACAAATTTTCCTAATCTTTCTGTTCAAGCGCCATCTAC”, the binding signal (RPM ratio (pull-down/input)) was found to be 0.356.
In the case of “GATGATTGTTCTCCCAGCTGATGAATTCTTCACGTCGAGTAAACAAATTTTCCTAATCTTTCTGTTCAAGCGCCATCTAC”, the binding signal (RPM ratio (pull-down/input)) worked out at 0.264.
As to “GATGATTGTTCTCCCAGCTGATGAATTGATCATATCGAGTAAACAAATTTTCCTAATCTTTCTGTTCAAGCGCCATCTAC”, the binding signal (RPM ratio (pull-down/input)) came to 0.657.
On to “GATGATTGTTCTCCCAGCTGATGAATTGCGAAGGTCGAGTAAACAAATTTTCCTAATCTTTCTGTTCAAGCGCCATCTAC”, for which the binding signal (RPM ratio (pull-down/input)) worked out at 0.469.
On to “GATGATTGTTCTCCCAGCTGATGAATTGTCCACATCGAGTAAACAAATTTTCCTAATCTTTCTGTTCAAGCGCCATCTAC”, for which the binding signal (RPM ratio (pull-down/input)) was found to be 0.682.
Take “GATGATTGTTCTCCCAGCTGATGAATTATTGTCCTCGAGTAAACAAATTTTCCTAATCTTTCTGTTCAAGCGCCATCTAC”: the binding signal (RPM ratio (pull-down/input)) was 1.44.
With “GATGATTGTTCTCCCAGCTGATGAATTTTCTCTTTCGAGTAAACAAATTTTCCTAATCTTTCTGTTCAAGCGCCATCTAC”, the binding signal (RPM ratio (pull-down/input)) stood at 0.236.
Turning to “GATGATTGTTCTCCCAGCTGATGAATTGATTAGCTCGAGTAAACAAATTTTCCTAATCTTTCTGTTCAAGCGCCATCTAC”, the binding signal (RPM ratio (pull-down/input)) amounted to 0.866.
With “GATGATTGTTCTCCCAGCTGATGAATTGCTGCCCTCGAGTAAACAAATTTTCCTAATCTTTCTGTTCAAGCGCCATCTAC”, the binding signal (RPM ratio (pull-down/input)) turned out to be 0.709.
As for “GATGATTGTTCTCCCAGCTGATGAATTCAGGCTGTCGAGTAAACAAATTTTCCTAATCTTTCTGTTCAAGCGCCATCTAC”, the binding signal (RPM ratio (pull-down/input)) was found to be 0.392.
Take “GATGATTGTTCTCCCAGCTGATGAATTAAGCTACTCGAGTAAACAAATTTTCCTAATCTTTCTGTTCAAGCGCCATCTAC”: the binding signal (RPM ratio (pull-down/input)) was 1.44.
The result for “GATGATTGTTCTCCCAGCTGATGAATTCGCGCGATCGAGTAAACAAATTTTCCTAATCTTTCTGTTCAAGCGCCATCTAC” reads 0.673.
On to “GATGATTGTTCTCCCAGCTGATGAATTCCCGATATCGAGTAAACAAATTTTCCTAATCTTTCTGTTCAAGCGCCATCTAC”, for which the binding signal (RPM ratio (pull-down/input)) was 0.303.
The result for “GATGATTGTTCTCCCAGCTGATGAATTTATAATATCGAGTAAACAAATTTTCCTAATCTTTCTGTTCAAGCGCCATCTAC” reads 0.602; that for “GATGATTGTTCTCCCAGCTGATGAATTGCTTTCGTCGAGTAAACAAATTTTCCTAATCTTTCTGTTCAAGCGCCATCTAC”, 1.16.
For the sequence “GATGATTGTTCTCCCAGCTGATGAATTAAAAGTGTCGAGTAAACAAATTTTCCTAATCTTTCTGTTCAAGCGCCATCTAC”, the binding signal (RPM ratio (pull-down/input)) was determined as 0.337.
Regarding “GATGATTGTTCTCCCAGCTGATGAATTGCTCCGCTCGAGTAAACAAATTTTCCTAATCTTTCTGTTCAAGCGCCATCTAC”, the binding signal (RPM ratio (pull-down/input)) came to 0.38.
As to “GATGATTGTTCTCCCAGCTGATGAATTCCACCATTCGAGTAAACAAATTTTCCTAATCTTTCTGTTCAAGCGCCATCTAC”, the binding signal (RPM ratio (pull-down/input)) was determined as 0.451.
For the sequence “GATGATTGTTCTCCCAGCTGATGAATTGGGCAGATCGAGTAAACAAATTTTCCTAATCTTTCTGTTCAAGCGCCATCTAC”, the binding signal (RPM ratio (pull-down/input)) was 0.328.
For “GATGATTGTTCTCCCAGCTGATGAATTGCTACGTTCGAGTAAACAAATTTTCCTAATCTTTCTGTTCAAGCGCCATCTAC”, the binding signal (RPM ratio (pull-down/input)) was found to be 0.707.
Consider “GATGATTGTTCTCCCAGCTGATGAATTAGGGTGCTCGAGTAAACAAATTTTCCTAATCTTTCTGTTCAAGCGCCATCTAC”, for which the binding signal (RPM ratio (pull-down/input)) came out at 0.532.
On to “GATGATTGTTCTCCCAGCTGATGAATTTAAAGTGTCGAGTAAACAAATTTTCCTAATCTTTCTGTTCAAGCGCCATCTAC”, for which the binding signal (RPM ratio (pull-down/input)) is 0.436.
